According to patent publication US20120201746A1 (AbbVie / Abbott, published 2012):

Key:
recombinant human IL-18 = recombinant human IL-18 (human, UniProt Q14116 37-193); assay: cell-based or functional assay
human IL-12 = biological target: T1, human IL-12 (human, UniProt P29459 23-219; P29460 23-328); assay: cell-based or functional assay
T1 sequence (looked up) 1: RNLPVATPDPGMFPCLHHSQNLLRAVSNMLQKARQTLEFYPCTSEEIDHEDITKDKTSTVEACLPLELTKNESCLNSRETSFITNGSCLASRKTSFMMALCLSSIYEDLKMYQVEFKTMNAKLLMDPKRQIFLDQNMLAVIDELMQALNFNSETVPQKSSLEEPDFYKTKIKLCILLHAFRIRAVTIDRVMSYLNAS
T1 sequence (looked up) 2: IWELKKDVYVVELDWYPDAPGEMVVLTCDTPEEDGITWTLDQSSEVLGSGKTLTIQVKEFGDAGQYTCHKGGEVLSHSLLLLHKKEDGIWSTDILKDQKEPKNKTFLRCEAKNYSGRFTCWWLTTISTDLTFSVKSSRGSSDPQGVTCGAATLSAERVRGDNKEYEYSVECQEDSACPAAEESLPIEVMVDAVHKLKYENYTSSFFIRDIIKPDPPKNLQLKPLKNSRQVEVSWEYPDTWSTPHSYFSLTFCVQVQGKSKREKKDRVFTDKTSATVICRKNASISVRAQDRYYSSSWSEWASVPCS

hB7.1-Fc = biological target: T2, hB7.1-Fc (human, UniProt P33681 35-242); assay: sandwich ELISA: CTLA4 protein coated at 1 µg/ml, hB7.1-Fc titrated, detected with biotinylated anti-hB7.1
T2 construct: Titrated in solution over the coated CTLA4 proteins; also called human B7.1; not shown: Fc part of hB7.1-Fc
T2 sequence (looked up): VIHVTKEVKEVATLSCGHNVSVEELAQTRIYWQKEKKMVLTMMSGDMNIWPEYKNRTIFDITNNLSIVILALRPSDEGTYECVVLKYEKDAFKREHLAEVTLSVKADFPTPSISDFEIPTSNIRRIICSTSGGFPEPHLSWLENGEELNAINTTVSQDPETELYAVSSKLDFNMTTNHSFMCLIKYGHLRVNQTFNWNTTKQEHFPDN

Recombinant Human IL-1β [1] = biological target: T3, Recombinant Human IL-1β (human, UniProt P01584 117-269); assay: SPR (BIAcore)
T3 construct: also called IL-1b

Recombinant Human IL-1β [2] = biological target: T3, Recombinant Human IL-1β; assay: SPR (BIAcore); *off-rate at the limit of dissociation after 1 hour

B1: IL12/IL18/PGE2 TVD (other)
heavy: EVTLRESGPALVKPTQTLTLTCTFSGFSLSKSVMGVSWIRQPPGKALEWLAHIYWDDDKYYNPSLKSRLTISKDTSKNQVVLTMTNMDPVDTATYYCARRGIRSAMDYWGQGTTVTVSSASTKGPEVQLVQSGTEVKKPGESLKISCKGSGYTVTSYWIGWVRQMPGKGLEWMGFIYPGDSETRYSPTFQGQVTISADKSFNTAFLQWSSLKASDTAMYYCARVGSGWYPYTFDIWGQGTMVTVSSASTKGPEVQLVQSGAEVKKPGASVKVSCKASGYTFTKYWLGWVRQAPGQGLEWMGDIYPGYDYTHYNEKFKDRVTLTTDTSTSTAYMELRSLRSDDTAVYYCARSDGSSTYWGQGTLVTVSS[human IgG1 constant region not spelt out]
light: DIVMTQSPDSLAVSLGERATINCKASQSVSNDVAWYQQKPGQPPKLLIYYASNRYTGVPDRFSGSGSGTDFTLTISSLQAEDVAVYYCQQDYNSPWTFGGGTKVEIKRTVAAPEIVMTQSPATLSVSPGERATLSCRASESISSNLAWYQQKPGQAPRLFIYTASTRATDIPARFSGSGSGTEFTLTISSLQSEDFAVYYCQQYNNWPSITFGQGTRLEIKRTVAAPDVLMTQTPLSLPVTPGEPASISCTSSQNIVHSNGNTYLEWYLQKPGQSPQLLIYKVSNRFSGVPDRFSGSGSGTDFTLKISRVEAEDVGVYYCFQVSHVPYTFGGGTKVEIKRTVAAPSVFIFPPSDEQLKSGTASVVCLLNNFYPREAKVQWKVDNALQSGNSQESVTEQDSKDSTYSLSSTLTLSKADYEKHKVYACEVTHQGLSSPVTKSFNRGEC
Neutralization of IL-18 IC50 (nM); IFN-γ release from KG-1 cells (recombinant human IL-18): 0.579 nM | Neutralization of IL-12 IC50 (nM); IFN-γ release from PHA blast cells (human IL-12): 4.57 nM

B2: hCTLA4ECD Fc (Fc fusion)
chain: not shown
notes: also called CTLA4-Fc; parental molecule hCTLA4ECD Fc
EC50 (hB7.1-Fc): 0.036 µg/mL

B3: ½ hCTLA4ECD Fc (Fc fusion)
chain: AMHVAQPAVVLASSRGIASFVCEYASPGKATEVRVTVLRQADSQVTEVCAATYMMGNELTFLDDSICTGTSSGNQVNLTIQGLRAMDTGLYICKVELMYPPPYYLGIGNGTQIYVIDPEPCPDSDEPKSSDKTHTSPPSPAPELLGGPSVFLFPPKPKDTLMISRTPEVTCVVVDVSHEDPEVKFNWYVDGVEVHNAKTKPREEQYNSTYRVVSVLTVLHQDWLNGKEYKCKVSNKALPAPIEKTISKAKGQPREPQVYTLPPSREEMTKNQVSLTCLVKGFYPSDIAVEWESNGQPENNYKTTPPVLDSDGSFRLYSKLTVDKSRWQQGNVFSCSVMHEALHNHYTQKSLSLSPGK
notes: Half receptor-Fc with Fc-Mut18; 98 % half-Ig by SEC; also called half hCTLA4ECD Fc; half-Ig hCTLA4ECD Fc
EC50 (hB7.1-Fc): 0.53 µg/mL

B4: IL1b DA1 Fc (Fc fusion)
chain: EVQLLESGGGLVQPGGSLRLSCAASGFTFADEGMMWVRQAPGKGLEWVSRITYSGKNTYYADSVKGRFTISRDNSKNTLYLQMNSLRAEDTAVYYCAKYTGRILGHHLFDYWGQGTLVTVSS[human IgG1 Fc not spelt out]
notes: Domain antibody-Fc with wild-type Fc; also called IL1beta DA1 Fc
Kd (Recombinant Human IL-1β [1]): 0.027 nM | kon (Recombinant Human IL-1β [1]): 150000 M⁻¹ s⁻¹ | koff (Recombinant Human IL-1β [2]): 4e-06 s⁻¹

B5: IL1b DA2 Fc (Fc fusion)
chain: EVQLLESGGGLVQPGGSLRLSCAASGFTFAEESWMWVRQAPGKGLEWVSRIGQDGKNTYYREDVKGRFTISRDNSKNTLYLQMNSLRAEDTAVYYCAKYTGRIMGHHLFDYWGQGTLVTVSS[human IgG1 Fc not spelt out]
notes: Domain antibody-Fc with wild-type Fc; also called IL1beta DA2 Fc
Kd (Recombinant Human IL-1β [1]): 0.012 nM | kon (Recombinant Human IL-1β [1]): 340000 M⁻¹ s⁻¹ | koff (Recombinant Human IL-1β [2]): 3.9e-06 s⁻¹
